For some assays here: Most of the strong results are listed elsewhere, so they are rarer here than in the full data. The list shows a part of the results, in another mix than the full data.
What was measured:
[1] = test system: Tyrosine-protein kinase ABL1 (Homo sapiens), P00519 [T315I]; settings: at 1 µM
[2] = test system: Tyrosine-protein kinase ABL1 (Homo sapiens), P00519 [Y253F]; settings: at 0.1 µM
[3] = test system: Tyrosine-protein kinase ABL1 (Homo sapiens), P00519 [Y253F]; settings: at 1 µM
[4] = biological target: Tyrosine-protein kinase ABL1 (Homo sapiens) (UniProt P00519); settings: at 0.1 µM
[5] = biological target: Tyrosine-protein kinase ABL1 (Homo sapiens) (UniProt P00519); settings: at 1 µM
[6] = biological target: ALK tyrosine kinase receptor (Homo sapiens) (UniProt Q9UM73); settings: at 0.1 µM
[7] = biological target: ALK tyrosine kinase receptor (Homo sapiens) (UniProt Q9UM73); settings: at 1 µM
[8] = biological target: Tyrosine-protein kinase ABL2 (Homo sapiens) (UniProt P42684); settings: at 0.1 µM
[9] = biological target: Tyrosine-protein kinase ABL2 (Homo sapiens) (UniProt P42684); settings: at 1 µM
[10] = biological target: Tyrosine-protein kinase receptor UFO (Homo sapiens) (UniProt P30530); settings: at 0.1 µM;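 also: values are mean percent inhibition of AXL from the GSK PKIS screen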
Chain of UniProt P30530 (P30530 whole entry): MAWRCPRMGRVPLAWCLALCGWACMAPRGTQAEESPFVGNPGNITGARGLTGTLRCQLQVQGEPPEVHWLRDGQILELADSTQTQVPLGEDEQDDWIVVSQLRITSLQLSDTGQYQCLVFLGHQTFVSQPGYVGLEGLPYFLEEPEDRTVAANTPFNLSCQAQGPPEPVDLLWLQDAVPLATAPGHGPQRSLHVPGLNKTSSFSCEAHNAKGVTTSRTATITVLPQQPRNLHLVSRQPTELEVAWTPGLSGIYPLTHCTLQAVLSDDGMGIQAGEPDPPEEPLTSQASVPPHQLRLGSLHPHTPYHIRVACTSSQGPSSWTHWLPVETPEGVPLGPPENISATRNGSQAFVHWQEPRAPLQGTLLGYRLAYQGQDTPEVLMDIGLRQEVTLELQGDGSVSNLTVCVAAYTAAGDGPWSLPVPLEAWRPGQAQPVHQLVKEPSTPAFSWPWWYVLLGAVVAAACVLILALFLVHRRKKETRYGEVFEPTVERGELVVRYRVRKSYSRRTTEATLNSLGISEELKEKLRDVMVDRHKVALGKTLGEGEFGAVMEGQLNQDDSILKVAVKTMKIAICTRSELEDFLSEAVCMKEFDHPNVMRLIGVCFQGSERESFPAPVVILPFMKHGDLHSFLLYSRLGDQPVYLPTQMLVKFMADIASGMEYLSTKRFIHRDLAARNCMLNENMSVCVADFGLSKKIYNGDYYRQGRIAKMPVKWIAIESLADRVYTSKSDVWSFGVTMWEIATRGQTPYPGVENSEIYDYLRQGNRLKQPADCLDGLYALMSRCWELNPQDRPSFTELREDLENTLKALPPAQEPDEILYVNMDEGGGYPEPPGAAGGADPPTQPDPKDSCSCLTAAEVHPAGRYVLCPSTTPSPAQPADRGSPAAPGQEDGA

Chain of UniProt Q9UM73 (Q9UM73 whole entry, looked up): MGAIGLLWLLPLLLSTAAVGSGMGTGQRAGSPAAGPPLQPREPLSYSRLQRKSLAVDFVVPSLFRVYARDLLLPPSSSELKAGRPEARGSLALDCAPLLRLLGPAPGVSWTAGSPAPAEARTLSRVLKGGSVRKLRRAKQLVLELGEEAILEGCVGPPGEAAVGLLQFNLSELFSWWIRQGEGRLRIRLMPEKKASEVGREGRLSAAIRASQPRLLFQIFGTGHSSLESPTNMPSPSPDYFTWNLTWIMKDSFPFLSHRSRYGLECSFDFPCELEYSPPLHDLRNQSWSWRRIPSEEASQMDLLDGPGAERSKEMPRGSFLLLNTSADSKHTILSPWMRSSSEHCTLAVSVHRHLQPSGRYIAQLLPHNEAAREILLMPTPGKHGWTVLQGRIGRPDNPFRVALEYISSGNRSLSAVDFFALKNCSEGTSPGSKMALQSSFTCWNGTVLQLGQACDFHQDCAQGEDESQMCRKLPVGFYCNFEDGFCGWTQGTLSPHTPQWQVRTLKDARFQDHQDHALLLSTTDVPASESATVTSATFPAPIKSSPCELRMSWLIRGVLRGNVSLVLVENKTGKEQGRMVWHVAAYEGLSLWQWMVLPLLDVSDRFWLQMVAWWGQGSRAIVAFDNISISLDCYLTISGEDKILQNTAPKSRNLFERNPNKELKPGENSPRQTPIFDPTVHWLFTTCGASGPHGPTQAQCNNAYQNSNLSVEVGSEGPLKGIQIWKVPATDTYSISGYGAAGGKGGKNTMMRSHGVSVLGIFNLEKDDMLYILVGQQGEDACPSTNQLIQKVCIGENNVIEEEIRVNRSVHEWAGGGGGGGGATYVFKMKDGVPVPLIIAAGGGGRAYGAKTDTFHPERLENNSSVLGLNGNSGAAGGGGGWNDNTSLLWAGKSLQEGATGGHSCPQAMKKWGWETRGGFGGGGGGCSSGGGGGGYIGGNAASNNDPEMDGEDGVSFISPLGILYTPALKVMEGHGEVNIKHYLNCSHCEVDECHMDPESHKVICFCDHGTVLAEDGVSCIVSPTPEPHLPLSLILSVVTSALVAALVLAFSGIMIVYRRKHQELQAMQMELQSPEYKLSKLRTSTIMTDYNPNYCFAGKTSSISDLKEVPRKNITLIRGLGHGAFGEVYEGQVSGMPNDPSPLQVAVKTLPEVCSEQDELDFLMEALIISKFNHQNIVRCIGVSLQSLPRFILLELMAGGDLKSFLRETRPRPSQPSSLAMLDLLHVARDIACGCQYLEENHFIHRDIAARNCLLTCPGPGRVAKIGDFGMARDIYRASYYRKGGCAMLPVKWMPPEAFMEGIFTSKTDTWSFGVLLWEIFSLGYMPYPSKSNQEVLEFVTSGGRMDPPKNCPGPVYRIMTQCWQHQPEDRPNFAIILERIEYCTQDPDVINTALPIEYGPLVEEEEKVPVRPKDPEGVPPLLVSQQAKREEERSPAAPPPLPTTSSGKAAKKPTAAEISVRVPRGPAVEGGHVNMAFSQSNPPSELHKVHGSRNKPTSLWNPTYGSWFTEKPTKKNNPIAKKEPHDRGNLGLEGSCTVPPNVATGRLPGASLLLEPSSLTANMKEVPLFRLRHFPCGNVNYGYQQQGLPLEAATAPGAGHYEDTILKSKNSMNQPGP
Chain of UniProt P42684 (P42684 whole entry): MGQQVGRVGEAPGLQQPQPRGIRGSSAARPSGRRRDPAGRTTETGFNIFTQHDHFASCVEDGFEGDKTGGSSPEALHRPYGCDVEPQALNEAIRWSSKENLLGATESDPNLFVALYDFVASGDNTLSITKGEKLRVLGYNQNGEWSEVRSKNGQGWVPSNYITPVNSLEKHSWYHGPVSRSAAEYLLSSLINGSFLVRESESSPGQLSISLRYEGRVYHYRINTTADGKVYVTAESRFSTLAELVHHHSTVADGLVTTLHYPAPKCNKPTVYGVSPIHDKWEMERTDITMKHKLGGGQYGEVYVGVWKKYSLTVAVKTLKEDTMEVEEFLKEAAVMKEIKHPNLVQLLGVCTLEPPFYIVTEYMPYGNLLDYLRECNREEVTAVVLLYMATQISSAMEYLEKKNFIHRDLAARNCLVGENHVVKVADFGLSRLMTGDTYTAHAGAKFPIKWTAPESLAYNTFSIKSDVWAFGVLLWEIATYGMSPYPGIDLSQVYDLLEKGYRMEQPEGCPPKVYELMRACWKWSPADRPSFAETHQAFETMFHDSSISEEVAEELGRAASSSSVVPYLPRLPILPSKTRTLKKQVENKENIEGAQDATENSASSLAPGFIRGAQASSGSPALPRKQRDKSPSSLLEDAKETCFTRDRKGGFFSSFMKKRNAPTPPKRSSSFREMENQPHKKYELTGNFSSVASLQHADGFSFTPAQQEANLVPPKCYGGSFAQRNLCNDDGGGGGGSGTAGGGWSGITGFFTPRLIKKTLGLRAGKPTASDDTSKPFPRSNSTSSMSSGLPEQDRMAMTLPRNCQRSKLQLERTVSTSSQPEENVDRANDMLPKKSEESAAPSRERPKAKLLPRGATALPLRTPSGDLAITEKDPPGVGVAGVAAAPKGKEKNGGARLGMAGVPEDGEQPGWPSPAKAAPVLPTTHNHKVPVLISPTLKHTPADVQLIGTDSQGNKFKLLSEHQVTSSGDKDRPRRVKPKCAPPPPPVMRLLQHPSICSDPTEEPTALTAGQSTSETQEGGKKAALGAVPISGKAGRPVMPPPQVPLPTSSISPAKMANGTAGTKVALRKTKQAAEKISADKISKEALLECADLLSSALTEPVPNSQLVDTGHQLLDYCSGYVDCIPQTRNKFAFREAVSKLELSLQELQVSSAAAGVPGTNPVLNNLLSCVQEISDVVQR

| SMILES | inhibition [1] | inhibition [2] | inhibition [3] | inhibition [4] | inhibition [5] | inhibition [6] | inhibition [7] | inhibition [8] | inhibition [9] | inhibition [10] |
| --- | --- | --- | --- | --- | --- | --- | --- | --- | --- | --- |
| Fc1ccc(-c2ncn(C3CCNCC3)c2-c2ccnc(Oc3cccc(F)c3)n2)cc1 | 2.15% | 4.09% | 5.95% | 7.47% | 12.1% | 3.75% | 4.16% | 5.61% | 11.8% | -7.53% |
| COc1ccccc1Oc1nccc(-c2c(-c3ccc(F)cc3)ncn2C2CCNCC2)n1 | 2.41% | 1.99% | 3.77% | 4.06% | 5.27% | 3.92% | 5.39% | 2.57% | 4.54% | -6.79% |
| O=C1NC(=O)C(c2ccccc2)=C1Nc1ccccc1 | 6.54% | 5.67% | 8.42% | 8.44% | 15.3% | 4.6% | 15% | 4.49% | 5.54% | -7.44% |
| Cc1cccc(Oc2nccc(-c3c(-c4ccc(F)cc4)ncn3C3CCNCC3)n2)c1C | 3.42% | 2.09% | 3.03% | 3.52% | 5.08% | 3.48% | 4.68% | 2.44% | 4.31% | -7.26% |
| CC(C)(C)c1ccc(Oc2nccc(-c3c(-c4ccc(F)cc4)ncn3C3CCNCC3)n2)cc1 | 4.41% | 4.32% | 5.3% | 2.32% | 4.69% | 2% | 3.19% | 1.72% | 3.61% | -4.21% |
| Fc1ccc(Oc2nccc(-c3c(-c4ccc(F)cc4)ncn3C3CCNCC3)n2)cc1 | 0.06% | 3.57% | 1.3% | -0.98% | -4.18% | -0.41% | 0.66% | -1.62% | -2.12% | -8.81% |
| COc1ccccc1C1=C(Nc2ccccc2)C(=O)NC1=O | 20.1% | 2.52% | 8.19% | 5.95% | 21.9% | 2.63% | 7.95% | 7.45% | 10.1% | -2.18% |
| NC(=O)CCc1ccccc1Oc1nccc(-c2c(-c3ccc(F)cc3)ncn2C2CCNCC2)n1 | -0.56% | -0.62% | -0.03% | -1.75% | -2.21% | -3.29% | -1.97% | -1% | -1.4% | 0.65% |
| O=C1NC(=O)C(c2cccc([N+](=O)[O-])c2)=C1Nc1cc(Cl)c(O)c(Cl)c1 | 0.69% | 0.46% | 0.15% | 2.47% | 0.82% | 3.25% | 3.11% | 2.92% | 3.78% | 1.59% |
| O=C(O)c1ccc(Oc2nccc(-c3c(-c4ccc(F)cc4)ncn3C3CCNCC3)n2)cc1 | 1.63% | 2.38% | 1.66% | 4.66% | 5.05% | 4.3% | 5.07% | 3.39% | 5.05% | -6.97% |
| CS(=O)(=O)c1ccc(Oc2nccc(-c3c(-c4ccc(F)cc4)ncn3C3CCNCC3)n2)cc1 | 3.6% | 4.05% | 3.8% | 3.57% | 4.83% | 3.34% | 3.77% | 3.57% | 5.04% | -5.49% |
| O=C1NC(=O)C(c2ccccc2Cl)=C1Nc1cc(Cl)c(O)c(Cl)c1 | 4.94% | 4.61% | 8.29% | 3.48% | 10.4% | 2.14% | 3.85% | 3.61% | 10.2% | -4.9% |
| Fc1ccc(-c2ncn(C3CCNCC3)c2-c2ccnc(Oc3ccc(Cl)cc3)n2)cc1 | 1.07% | 2.57% | 1.98% | 0.14% | 0.8% | 1.35% | 1.34% | 3.95% | -0.16% | -0.96% |
| Fc1ccc(-c2ncn(C3CCNCC3)c2-c2ccnc(Oc3cccc(C(F)(F)F)c3)n2)cc1 | 4.06% | 5.27% | 5.56% | 6.03% | 7.86% | 4.02% | 5.34% | 5.73% | 8.03% | -8% |

— ChEMBL document CHEMBL1961873, “Compounds: GSK PKIS; Assays: Nanosyn kinase panel” (2012)
